Experimental data from a collection of fitness landscapes (doi:10.1016/j.celrep.2020.107928).
Over roughly 81,000 sequences, “one-hybrid fitness for binding parS DNA” has its median near -0.17; the highest 2% begin near 0.51. The list shows a part of the results.

B1: Caulobacter ParB omega fusion; a variant is named by its letters at X, in order, B8GW30 (parent)
chain: MESVVVGEPGMSEGRRGLGRGLSALLGEVDAAPAQAPGEQLGGSREAPIEILQRNPDQPRRTFREEDLEDLSNSIREKGVLQPILVRPSPDTAGEYQIVAGERAWRAAQRAGLKTVPIMVRELDDLAVLEIGIIENVQRADLNVLEEALSYKVLMEKFERTQENIAQTIGKSXSHVANXMRLLXLPDEVQSYLVSGELTAXHARAIAAAADPVALAKQIIEGGLSVRETEALARKAPNLSAGKSKGGRPPRVKDTDTQALESDLSSVLGLDVSIDHRGSTGTLTITYATLEQLDDLCNRLTRGI

Variants of: B1
Assay: one-hybrid fitness for binding parS DNA (scaled: cognate 1, non-cognate 0); higher = stronger binding
Settings: with parS DNA site
Procedure, shortened: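 Values were rescaled so that cognate is 1 and non-cognate is 0. Each is a fitness, the log change in a variant's read ratio to wild type from Illumina reads of plasmids before and after selection, with three replicate libraries pooled and variants under 10 reads dropped. Selection of the Caulobacter ParB libraries, four specificity codons randomised, used E. coli USO with a HIS3 reporter, site 19 bp from the promoter, on M9-minus-histidine with 0.1 mM IPTG and 5 mM 3-AT for 48 hours at 37°C.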

Variant	one-hybrid fitness for binding parS DNA
PVYI	≤ 0.2
SCES	≤ 0.2
MILS	0.26
YLPE	≤ 0.2
PKMS	≤ 0.2
GDRV	≤ 0.2
LSTM	≤ 0.2
MAIC	≤ 0.2
ASSY	≤ 0.2
YMLN	≤ 0.2
REQG	≤ 0.2
LPPE	≤ 0.2
CRGG	≤ 0.2
ELRY	≤ 0.2
CRYG	≤ 0.2
TSKC	≤ 0.2
RVKN	0.46
QMYN	≤ 0.2
DTER	≤ 0.2
ALNF	≤ 0.2
FMTP	≤ 0.2
WNIV	≤ 0.2
DMYS	≤ 0.2
LFQS	≤ 0.2
ARRD	≤ 0.2

Variant	one-hybrid fitness for binding parS DNA
QAEM	≤ 0.2
TRLP	≤ 0.2
RLDQ	≤ 0.2
KLQT	≤ 0.2
DRGC	≤ 0.2
RPHG	≤ 0.2
CTDS	≤ 0.2
NMFN	≤ 0.2
PHRK	≤ 0.2
KSKH	≤ 0.2
NRTI	≤ 0.2
YSCT	≤ 0.2
YRDT	≤ 0.2
CGRV	≤ 0.2
LLTG	≤ 0.2
QPAK	≤ 0.2
GFQS	≤ 0.2
HIPL	≤ 0.2
IGPL	≤ 0.2
APDR	≤ 0.2
ISHT	≤ 0.2
RMEW	≤ 0.2
CSHI	≤ 0.2
GVMW	≤ 0.2
QADA	≤ 0.2

Variant	one-hybrid fitness for binding parS DNA
CRAL	≤ 0.2
KIAL	≤ 0.2
QLCN	≤ 0.2
KYNI	≤ 0.2
WAPV	≤ 0.2
GRIP	≤ 0.2
YTTE	≤ 0.2
NGYC	≤ 0.2
RWQV	≤ 0.2
NPVG	≤ 0.2
HYNT	≤ 0.2
LLSW	≤ 0.2
TPGA	≤ 0.2
WMAT	≤ 0.2
SKLC	≤ 0.2
LDTG	≤ 0.2
KLIR	≤ 0.2
WPCC	≤ 0.2
ALAH	≤ 0.2
QMET	≤ 0.2
NWRV	≤ 0.2
KRLH	≤ 0.2
MCDG	≤ 0.2
HTQT	≤ 0.2
EWIR	≤ 0.2

Variant	one-hybrid fitness for binding parS DNA
HTGH	≤ 0.2
RWSK	≤ 0.2
PTHF	≤ 0.2
QGAY	≤ 0.2
PYQW	≤ 0.2
KLLF	≤ 0.2
CMAL	≤ 0.2
AHVR	≤ 0.2
VKER	≤ 0.2
ANGG	≤ 0.2
YCSG	≤ 0.2
TLNT	≤ 0.2
RTWI	≤ 0.2
HVDM	≤ 0.2
EMAM	≤ 0.2
SPRS	≤ 0.2
QHTA	≤ 0.2
MGQN	≤ 0.2
NCRE	≤ 0.2
MRVQ	≤ 0.2
KCGT	≤ 0.2
TLTI	≤ 0.2
YPDM	≤ 0.2
NMCN	≤ 0.2
QVYV	≤ 0.2

Variant	one-hybrid fitness for binding parS DNA
DTQT	≤ 0.2
TPNN	≤ 0.2
CVYR	≤ 0.2
HPQM	≤ 0.2
EVIR	≤ 0.2
QKFI	≤ 0.2
NSRP	≤ 0.2
RPLF	≤ 0.2
RHAL	≤ 0.2
TSTM	≤ 0.2
KYAE	≤ 0.2
VENR	≤ 0.2
PIRN	≤ 0.2
NGAF	≤ 0.2
YHMT	≤ 0.2
PDIL	≤ 0.2
SYTV	≤ 0.2
LPMC	≤ 0.2
MLDS	≤ 0.2
RTLI	≤ 0.2
SGKA	≤ 0.2
LMWS	≤ 0.2
LCMI	≤ 0.2
QDHT	≤ 0.2
HRRE	≤ 0.2

Variant	one-hybrid fitness for binding parS DNA
MQKM	≤ 0.2
RHIE	≤ 0.2
RGFY	≤ 0.2
LGDP	≤ 0.2
IEMG	≤ 0.2
KSTC	≤ 0.2
QLYH	≤ 0.2
KCYS	≤ 0.2
NTMR	≤ 0.2
PVYK	≤ 0.2
VLYL	≤ 0.2
HCER	≤ 0.2
MLPI	≤ 0.2
ARLQ	≤ 0.2
RTFN	0.436
CGRR	≤ 0.2
DTVC	≤ 0.2
RNWT	0.535
YRWR	≤ 0.2
CHNT	≤ 0.2
YMTI	≤ 0.2
PDLN	≤ 0.2
RVAE	≤ 0.2
PIYS	≤ 0.2
NICS	≤ 0.2

Variant	one-hybrid fitness for binding parS DNA
PVLR	≤ 0.2
QTYV	≤ 0.2
AESI	≤ 0.2
PSFM	≤ 0.2
HSYG	≤ 0.2
VWTW	≤ 0.2
VTIR	≤ 0.2
RAFN	0.426
LCTE	≤ 0.2
ASRR	≤ 0.2
RFNW	0.25
VAQA	≤ 0.2
AAHG	≤ 0.2
GLDY	≤ 0.2
KALK	≤ 0.2
WQLV	≤ 0.2
RYYM	0.296
ALIN	≤ 0.2
YYCY	≤ 0.2
PQAQ	≤ 0.2
MDRR	≤ 0.2
MGRR	≤ 0.2
RFKP	≤ 0.2
QRTM	≤ 0.2
LQEG	≤ 0.2

Variant	one-hybrid fitness for binding parS DNA
KVAG	≤ 0.2
QDQA	≤ 0.2
YLDC	≤ 0.2
SWLL	≤ 0.2
PFGL	≤ 0.2
RGYF	≤ 0.2
RYWF	0.258
NVSW	≤ 0.2
RYNW	0.208
TEHM	≤ 0.2
EQLR	≤ 0.2
PYLE	≤ 0.2
KTIA	≤ 0.2
GLHF	≤ 0.2
LPQT	≤ 0.2
GRPF	≤ 0.2
MVIR	≤ 0.2
RTIA	0.542
DVRW	≤ 0.2
PYWC	≤ 0.2
